# Laboratory results from paper PMC4336329 (PLoS ONE, 2015).
# About 14,000 (4.5%) of roughly 310,000 compounds showed an effect of 50% or more. Effects have a minus sign here. Some of the results follow.
# Molecular target: human ether-à-go-go-related gene (hERG) potassium channel (human, UniProt Q12809)
# Experiment: primary screen, population patch clamp on CHO cells stably expressing hERG
# 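Also: peak tail current of the secondary pulse compared with the same well before compound.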
# Chain of human ether-à-go-go-related gene (hERG) potassium channel (Q12809 whole entry, looked up): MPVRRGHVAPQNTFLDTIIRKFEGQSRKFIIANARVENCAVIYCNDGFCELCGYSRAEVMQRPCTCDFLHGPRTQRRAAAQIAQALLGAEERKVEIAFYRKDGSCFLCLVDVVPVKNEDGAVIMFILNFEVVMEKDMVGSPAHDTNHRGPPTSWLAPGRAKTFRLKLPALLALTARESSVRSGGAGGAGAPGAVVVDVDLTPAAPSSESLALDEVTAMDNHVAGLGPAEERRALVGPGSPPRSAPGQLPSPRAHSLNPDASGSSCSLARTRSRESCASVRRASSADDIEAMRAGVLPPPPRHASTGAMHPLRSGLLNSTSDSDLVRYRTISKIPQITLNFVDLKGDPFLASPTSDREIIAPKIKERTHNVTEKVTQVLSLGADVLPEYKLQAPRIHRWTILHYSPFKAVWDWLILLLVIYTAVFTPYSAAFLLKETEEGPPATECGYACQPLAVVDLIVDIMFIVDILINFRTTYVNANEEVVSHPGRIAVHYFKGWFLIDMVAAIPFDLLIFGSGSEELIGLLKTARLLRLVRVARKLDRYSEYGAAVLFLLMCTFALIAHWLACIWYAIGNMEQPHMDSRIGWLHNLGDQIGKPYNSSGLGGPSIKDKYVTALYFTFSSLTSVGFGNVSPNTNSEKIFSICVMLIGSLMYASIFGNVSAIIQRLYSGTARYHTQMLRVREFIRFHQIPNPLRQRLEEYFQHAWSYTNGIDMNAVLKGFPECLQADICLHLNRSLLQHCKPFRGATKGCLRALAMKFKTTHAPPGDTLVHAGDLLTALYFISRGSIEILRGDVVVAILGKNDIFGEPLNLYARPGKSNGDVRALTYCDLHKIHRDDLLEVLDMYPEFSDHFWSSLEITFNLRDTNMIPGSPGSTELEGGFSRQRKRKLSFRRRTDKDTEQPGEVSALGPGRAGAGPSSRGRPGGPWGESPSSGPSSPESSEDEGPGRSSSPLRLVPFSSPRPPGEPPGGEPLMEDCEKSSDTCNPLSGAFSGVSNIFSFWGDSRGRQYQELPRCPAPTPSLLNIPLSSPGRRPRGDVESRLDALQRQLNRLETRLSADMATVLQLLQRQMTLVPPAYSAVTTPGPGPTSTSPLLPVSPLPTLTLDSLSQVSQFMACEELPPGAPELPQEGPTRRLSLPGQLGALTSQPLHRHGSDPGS
row,Compound,"hERG current change (%, negative = inhibition) at 10uM [%]"
1,C/C(=N\NC(=O)c1cc(C)oc1C)c1ccc2ccccc2c1,8.79
2,CCC(=O)NCCc1c[nH]c2ccccc12,1.24
3,COc1ccc(CCN=C(N)NS(=O)(=O)c2ccccc2)cc1OC,19.5
4,Cc1c(C(=O)NCc2ccccc2)c(-c2ccccc2)nn1-c1ccccc1,-13
5,CN(C)c1ccc(/C=C2/C(=O)NC(=O)N(Cc3ccco3)C2=O)cc1,4.11
6,COc1ccc(C)cc1N1CC(C(=O)Nc2ccccc2C(=O)NC2CC2)CC1=O (stereo not drawn),2.22
7,CN(C)S(=O)(=O)N1CCN(c2ccc([N+](=O)[O-])c(N3CCCCC3)c2)CC1,7.8
8,O=C(Cn1ccc(C(F)(F)F)n1)Nc1cccc(S(=O)(=O)N2CCCCC2)c1,-60.5
9,S=C(c1ccc(-c2cccc(Cl)c2)o1)N1CCOCC1,2.46
10,Cn1ncc(C#N)c1/N=C/N1CCCC1,8.25
11,CCN1CCN(C(c2ccccc2)c2nnnn2CCc2ccc(OC)c(OC)c2)CC1.Cl (stereo not drawn),5.02
12,CC(OC(=O)C1CSC2(C)CCC(=O)N12)C(=O)Nc1cccc(C#N)c1 (stereo not drawn),-9.25
13,CCOC(=O)C1(Cc2cccc(Cl)c2)CCCN(C(=O)CCOC)C1 (stereo not drawn),-0.593
14,O=C(COc1ncnc2scc(-c3ccccc3)c12)NC1CCCc2ccccc21 (stereo not drawn),-14.3
15,CC(=NCc1ccco1)c1c(O)n(-c2ccc(Cl)cc2)c(=O)[nH]c1=O,16.4
16,Clc1ccccc1N1CCN(Cc2ccco2)CC1,-4.9
17,CC[n+]1ccc(C[n+]2ccccc2)c2ccccc21.[I-],19.7
18,O=C(CSc1ccc(-c2ccccc2)nn1)NC1CCCCC1,-5.91
19,COc1ccc(CNC(=O)C(=O)NCC2CCCO2)cc1 (stereo not drawn),9.7
20,CCNc1nc(NCC)n2c(SCC(=O)Nc3ccccc3[N+](=O)[O-])nnc2n1,-14.5
21,C#CCOCCOCCOCCNc1nc(N2CCN(C(=O)C([C@@H](C)CC)n3cc(C(N)Cc4ccc(O)cc4)nn3)CC2)nc(N2CCN(C(=O)[C@H](CCC(=O)O)n3cc(C(N)[C@H](C)CC)nn3)CC2)n1.Cl (stereo partly drawn),4.5
22,CCC(CC)NC(=O)C1CC(=O)N(CCc2ccc(F)cc2)C1 (stereo not drawn),12.5
23,Cc1ccc(S(=O)(=O)N/N=C\C=C\c2ccccc2)cc1,11.9
24,O=C(O)c1cnc(-c2ccccc2)nc1-c1ccccc1,15.8
